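Assay format: 96-well plates, 48-hour exposure. At the GI50, growth is halved.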 Calls of active or inactive are those of the source. Cut-off read from the data, not from the text of the source: active = GI50 up to about 1.1 µM and inactive = higher. Peptide text beside a SMILES is read from it. * marks the point of attachment. Bn = c1ccc(C*)cc1
System: NCI-H322M
Experiment: NCI tumour cell line growth inhibition, 48 h

Row | Structure (SMILES) | GI50
1 | CCOC(=O)c1cn(CC)c2ccc3c(c2c1=O)S(=O)(=O)C=C3 | inactive: > 100 µM
2 | CCOC(=O)CCN1C(=O)c2c(NC(=O)C(=O)O)cccc2S1(=O)=O | inactive: > 100 µM
3 | N=S(=O)(c1ccccc1)c1ccccc1 | inactive: > 100 µM
4 | Cc1nc(=O)[nH]c2s/c(=N/C3CCCCC3)n(C3CCCCC3)c(=O)c12 | inactive: > 100 µM
5 | Oc1c(N2CCOCC2)cc(-c2cc(N3CCOCC3)c(O)c3ccccc23)c2ccccc12 | inactive: 1.91 µM
6 | O=C(O)/C(Cl)=C(\Cl)Nc1cccc(C(F)(F)F)c1 | inactive: 17.1 µM
7 | COc1ccccc1Nc1nc(NNC(=O)Cc2ccccc2)nc(NNC(=O)c2ccncc2)n1 | inactive: > 10 µM
8 | S=C1/C(=N/c2ccccc2)N(c2ccccc2)/C(=N\c2cccc[n+]2Cc2ccccc2)N1c1ccccc1 | inactive: 20 µM
9 | CNC(=O)OCc1nc(N=[N+]=[N-])n(C)c1COC(=O)NC | inactive: 85.5 µM
10 | O=c1ccn(CC2(CO)CC(Cc3ccccc3)C2)c(=O)[nH]1 (configuration not stated) | inactive: > 100 µM
11 | O=C1OC(C(O)CO)C(C(O)CO)OC1=O (configuration not stated) | inactive: > 10 µM
12 | CCCCCCCCCCCCNC(=O)NCC(OCC)OCC | inactive: > 10 µM
13 | CN(N=O)c1nc2c(C(N)=O)ncn2s1 | inactive: > 100 µM
14 | COc1ccc(/C=C2\N=C(c3ccccc3)OC2=O)c(OCc2ccccc2)c1 | inactive: 25.3 µM
15 | CSc1nnc(SCc2nn3c(=O)cc(C)nc3s2)s1 | inactive: > 100 µM
16 | CCOC(=O)CCC(NC(=O)c1ccc(Nc2nc3cc(C(F)(F)F)ccc3nc2C(=O)OCC)cc1)C(=O)OCC (configuration not stated) | inactive: 11.1 µM
17 | CC(C)[C@H](COC(C)(C)C)/N=C/N1CSc2ccccc21 | inactive: 24.7 µM
18 | Cc1nc(Nc2ccccc2)sc1C(=O)CC(=O)C(=O)Nc1c(C(C)C)cccc1C(C)C | inactive: > 100 µM
19 | CC1(CCOCc2ccccc2)NC(=O)NC1=O (configuration not stated) | inactive: > 100 µM
20 | N#C/C(C(=O)Nc1ccc(Cl)cc1)=C(/N)N1CCCC1 | inactive: > 100 µM
21 | CCCCCCCC/C=C\CCCCCCC/C=C1\C[C@](/C=C/C(=O)OC)(CO)OC1=O | inactive: 13.8 µM
22 | CC(C)(Oc1ccc(C(=O)c2ccc(Cl)cc2)cc1Cl)C(=O)N1CCN(c2ccccc2)CC1 | inactive: > 100 µM
23 | O=C1c2c(Br)sc(Br)c2[C@H]2NC(=S)O[C@@H]12 | inactive: 19 µM

Row | Structure (SMILES) | GI50
24 | NC(=O)NC(=O)c1cccc(C(=O)NC(N)=O)n1 | inactive: > 100 µM
25 | O=C(Cc1ccccc1)NN1C(=O)C(Cl)C1c1ccccc1O (configuration not stated) | inactive: 19.6 µM
26 | O=C(O)c1ccc(NNC(=O)c2cccc3c(=O)c4ccccc4[nH]c23)cc1 | inactive: 71.9 µM
27 | Brc1ccc2c(c1)-c1nc3c(cc1CC2)CCc1ccc(Br)cc1-3 | inactive: > 100 µM
28 | Nc1ccn([C@@H]2C=C(CO)[C@@H](O)[C@H]2O)c(=O)n1 | active: 0.377 µM
29 | Cc1sc(N/N=C2\C(=O)Nc3ccccc32)nc1-c1ccccc1 | inactive: 16 µM
30 | CC(C)O/N=C/c1cc(NC(=S)OC(C)C)ccc1Cl | inactive: > 80.9 µM
31 | CCOC(=O)/C(=N\OC)C(O)C(F)(F)F (configuration not stated) | inactive: > 100 µM
32 | COC(=O)c1sc(=O)n(-c2ccccc2)c1SCc1ccccc1 | inactive: > 100 µM
33 | COc1ccc(C(=O)Nc2ccc3oc(-c4ccccc4)nc3c2)cc1 | inactive: > 100 µM
34 | O=C1C(O)=C(CCCc2ccc(Oc3ccccc3)cc2)C(=O)c2ccccc21 | inactive: 10.7 µM
35 | Cc1cccc2c(=O)cc(-c3ccccc3)[nH]c12 | inactive: 6.65 µM
36 | C/C=C(/C)C(=O)O[C@H]1C[C@@H]2[C@@H](O)c3occ(C)c3C[C@]2(C)[C@@H](C)C1 | inactive: 20.1 µM
37 | COc1ccc(/C(Cl)=C(\C=O)c2ccc(Br)cc2)cc1OC | inactive: > 100 µM
38 | CN1CC2CC(C1)c1cccc(=O)n1C2 (configuration not stated) | inactive: > 100 µM
39 | CC(=O)OC1CC2(c3ccccc3)C(=O)c3ccccc3N2O1 (configuration not stated) | inactive: > 100 µM
40 | C=C1c2nc3ccccc3n2C=C(c2ccc(OC)cc2)N1c1ccc(OCCN2CCCCC2)cc1 | inactive: 20.2 µM
41 | Nc1ccn(CCOC(c2ccccc2)P(=O)(O)O)c(=O)n1 (configuration not stated) | inactive: > 100 µM
42 | O=C(O)c1ccccc1CC(Cc1ccccc1)C(=O)O (configuration not stated) | inactive: > 100 µM
43 | O=c1oc2ccc([N+](=O)[O-])cc2c(Nc2ccc3c(c2)Sc2ccccc2O3)c1[N+](=O)[O-] | inactive: 21.1 µM
44 | C=C1CC[C@@]2(OC1)OC1C[C@H]3[C@@H]4CC=C5C[C@@H](O)CC(OC6OCC(OC(=O)[C@@H](O)[C@@H](C)CC)C(OC(C)=O)C6OC6OC(C)C(O)C(O)C6O)[C@]5(C)[C@H]4CC[C@]3(C)C1[C@@H]2C (some centres not stated) | inactive: 2.38 µM
45 | CC(=O)O[C@H]1C(=O)[C@@]2(C)[C@H]([C@H](OC(=O)c3ccoc3)[C@]3(O)C[C@H](OC(=O)[C@H](O)[C@@H](NC(=O)c4ccccc4)c4ccccc4)C(C)=C1C3(C)C)[C@]1(OC(C)=O)CO[C@@H]1C[C@@H]2O | active: 0.114 µM
46 | CCc1cc2c(O)c(c1)Cc1cc(CC)cc(c1O)Cc1cc(CC)cc(c1O)Cc1cc(CC)cc(c1O)Cc1cc(CC)cc(c1O)Cc1cc(CC)cc(c1O)Cc1cc(CC)cc(c1O)C2 | inactive: > 100 µM

Row | Structure (SMILES) | GI50
47 | Cc1cc2nc3c(C#N)c(-c4ccccc4)cc(Nc4cccc(C(F)(F)F)c4)n3c2cc1C | inactive: 5.46 µM
48 | Fc1cc(C2=Nn3c(CNc4ccc(Cl)cc4)nnc3S/C2=C\c2ccc(-c3ccc(Cl)cc3)o2)c(Cl)cc1Cl | inactive: 33.5 µM
49 | CCOC(=O)/C1=C(\C)N(c2ccc(C)cc2)C(=O)c2ccccc2C(=O)c2c(O)ccc(O)c21 | inactive: 24.3 µM
50 | CCc1nnc(CC)n1N1C(=O)CCC1=O | inactive: > 100 µM
51 | Cc1ccc(/C=N/Nc2ncccn2)s1 | inactive: > 100 µM
52 | O=C(NO)c1ccc(C(=O)NO)cc1 | inactive: 38.2 µM
53 | Fc1ccccc1C1SCc2nc3cc4ccccc4cc3n21 (configuration not stated) | inactive: 47.3 µM
54 | NC(=O)CCC(NCc1c2ccccc2[n+]([O-])c2ccccc12)C(=O)O (configuration not stated) | inactive: 88.1 µM
55 | O=S1(=O)c2ccccc2N2CCCc3cc(Cl)cc1c32 | inactive: > 100 µM
56 | Cn1c(O)c(C(=O)Nc2ccc([N+](=O)[O-])cc2)c(=O)n(C)c1=S | inactive: 2.59 µM
57 | O=C(NNc1cn[nH]c(=O)c1Cl)/C(=C/c1ccc2c(c1)OCO2)NC(=O)c1ccccc1 | inactive: 97.7 µM
58 | CC1(C)O[C@@H](C[C@]2(C#N)C[C@H](CCl)OC(C)(C)O2)C[C@@H](C#N)O1 | inactive: > 100 µM
59 | O=c1c2cc(I)ccc2nc(-c2cccs2)n1O | inactive: 22.1 µM
60 | CC1C2=C(O)CC(C)(C)CC2=NC2=C1C(=O)CC(C)(C)C2 (configuration not stated) | inactive: > 100 µM
61 | N/C(=N\O)N/N=C/c1ncccc1O | inactive: 18.3 µM
62 | COC(=O)c1cc(C#N)[nH]c1-c1cc(Br)cs1 | inactive: 19.3 µM
63 | O=C(N/N=C(COc1ccc(Cl)cc1)\N=C\c1cccnc1)c1ccncc1 | inactive: > 100 µM
64 | Cn1c(N)c(-c2c3ccccc3nc3ccccc23)c(=O)n(C)c1=O | inactive: > 100 µM
65 | COc1c2occc2cc2ccc(=O)oc12 [METHOXSALEN] | inactive: > 100 µM
66 | COc1cc2c(cc1OC)C(OC)N(C)c1c-2ccc2cc3c(cc12)OCO3 (configuration not stated) | inactive: 2.69 µM
67 | COc1ccc(OCC(=N/NC(=O)c2ccncc2)/N=C/c2cccnc2)cc1 | inactive: > 100 µM
68 | COc1ccc(C2=Nc3c(nc(OC)[nH]c3=O)NC(c3ccccc3)C2)cc1 (configuration not stated) | inactive: 49 µM
69 | Cc1c(C(=O)CSc2nc3ccccc3c(=O)n2-c2ccccc2)c(=O)n(-c2ccccc2)n1C | inactive: 67.6 µM

Row | Structure (SMILES) | GI50
70 | COC(=O)C1C(=O)N(C)C(=O)N2CCCC12 (configuration not stated) | inactive: > 100 µM
71 | O=C(NCc1ccccc1)C1C(=O)C(=O)N(Cc2ccccc2)C1=O (configuration not stated) | inactive: > 100 µM
72 | CCOC(=O)C(=Cc1ccccc1Cl)C(=O)OCC | inactive: 1.8 µM
73 | N=C(N)N/N=C/c1c(-c2ccccc2[N+](=O)[O-])nc2sccn12 | inactive: 45.7 µM
74 | N/C(CSCCSC/C(N)=N/O)=N\O | inactive: > 100 µM
75 | CCN(CC)CCNc1nc(N)c(C#N)c(C#N)c1C#N | inactive: > 10 µM
76 | CC(C)(C)C(=O)Nc1c(C=O)ccc2[nH]cnc12 | inactive: > 100 µM
77 | c1ccncc1 | inactive: > 100 µM
78 | COC(=O)c1ccccc1/C=C1\Cc2c(ccc3c2CCC3)C1=O | inactive: > 100 µM
79 | Cc1cc(Br)ccc1/N=N/c1c(C)nn(-c2ccccc2)c1-c1ccccc1 | inactive: > 100 µM
80 | CC(C)CNC(=O)CCc1cccc2c1oc1c(CCN)cccc12 | inactive: 18.7 µM
81 | Cn1c(=O)c2nc(CCCc3ccc([N+](=O)[O-])cc3)[nH]c2n(C)c1=O | inactive: > 100 µM
82 | O=C1CSC(c2ccccc2O)N1c1ccc(-c2ccc(-n3c(-c4ccccc4)nc4ccccc4c3=O)cc2)cc1 (configuration not stated) | inactive: 22.7 µM
83 | CCC(=O)O[C@H]1CC[C@H]2[C@@H]3CCC4=C/C(=N/OC(=O)c5cccc6cc7ccccc7nc56)CC[C@]4(C)[C@H]3CC[C@]12C | inactive: > 100 µM
84 | NCC(=O)N[C@H]1c2ccsc2/C(=N/O)[C@H]1O | inactive: > 100 µM
85 | CC1=NN(c2nc(N)nc(/C(C#N)=C/c3ccncc3)n2)C(C)(C)C1 | inactive: > 100 µM
86 | COc1cccc(/C=N/[N+](C)(C)C)c1O | inactive: > 10 µM
87 | COC(=O)C(CC(C)C)NC(=O)C(N)Cc1ccc(OCc2ccccc2)cc1 (configuration not stated) (H-Tyr(Bn)-Leu-OMe; configuration not given here) | inactive: > 10 µM
88 | Nc1ccccc1SCc1csc(-c2ccc(Cl)cc2)n1 | inactive: 39.8 µM
89 | CCCCCCCCCCCCCCCC(=O)OCC(O)C1OC(=O)C(O)=C1O (configuration not stated) | inactive: 29.8 µM
90 | COC(=O)C1=C(O)C(C(=O)OC)[C@]2(O)[C@H](C(=O)OC)[C@H]1C[C@@H](c1cccc(OC)c1)[C@H]2C(=O)OC (some centres not stated) | inactive: 28.1 µM
91 | COc1ccc(/C=C/C(=O)N[C@@H]2C(=O)N3[C@@H]2SC(C)(C)[C@@H]3C(=O)O)cc1 | inactive: > 100 µM
92 | Cc1c(C)c2c(c(N)c1C#N)C(=O)N(NC(=O)c1ccccc1)C2=O | inactive: > 100 µM
